# Reference: PubChem BioAssay AID1347055 (National Center for Advancing Translational Sciences (NCATS), 2019)
# Among all 54,000 compounds or so, about 120 (0.22%) were called active. Inconclusive means that the source gave no clear call. Such entries were picked first, then a sample of the others. Calls follow the shape of the dose curve; as a rule, active = well fitted inhibition curve with a large enough effect; inconclusive = small, poorly fitted or top-dose-only effect, or effect the other way; inactive = flat fitted curve, though single readings scatter. Potencies of inconclusive entries are left out as doubtful fits.
# Target: Fumarate hydratase, mitochondrial (Homo sapiens) (UniProt P07954)
# Chain of UniProt P07954 (P07954 whole entry, looked up): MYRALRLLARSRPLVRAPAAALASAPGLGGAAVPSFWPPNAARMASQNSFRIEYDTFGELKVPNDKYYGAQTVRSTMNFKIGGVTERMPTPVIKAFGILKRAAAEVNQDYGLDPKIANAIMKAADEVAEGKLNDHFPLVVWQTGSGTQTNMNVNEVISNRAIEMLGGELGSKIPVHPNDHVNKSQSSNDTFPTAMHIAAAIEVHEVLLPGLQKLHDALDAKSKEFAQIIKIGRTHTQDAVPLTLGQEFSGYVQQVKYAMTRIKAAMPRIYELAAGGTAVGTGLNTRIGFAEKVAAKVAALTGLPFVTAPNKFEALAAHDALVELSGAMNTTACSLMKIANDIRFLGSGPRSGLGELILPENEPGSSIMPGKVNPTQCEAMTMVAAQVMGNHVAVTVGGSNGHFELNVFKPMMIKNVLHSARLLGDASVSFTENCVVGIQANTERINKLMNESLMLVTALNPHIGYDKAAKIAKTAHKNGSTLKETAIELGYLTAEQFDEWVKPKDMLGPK
# Experiment: Identification of activators of human fumarate hydratase by quantitative high-throughput screening; also: the screen sought activators but most active calls are inhibition curves; nearly all actives have a fitted effect of over 45% in size
# Details: FH coupled MDH/diaphorase resazurin fluorescence, 15 min; activity change, negative = inhibition: at 79.9 µM (top of the series)
# % is scaled to controls: 0 for no effect and ±100 for the full control effect; potency is read from the fitted curve at half-maximal effect; tags tell the direction and shape of the fitted curve.
Compound,"activity change, negative = inhibition",Potency
CCNC(=O)OC1CCN(c2nncc3cc(OC)c(OC)cc23)CC1,inactive: 0.188%,
CCOC(=O)c1ccc(N2C(=O)c3n[nH]c(-c4ccco4)c3C2c2cccc(F)c2)cc1 (stereo not drawn),,"inconclusive [inhibitor, partial curve]"
CC(C)c1ccc(S(=O)(=O)Nc2cc3c(cc2NCc2ccccc2)n(C)c(=O)n3C)cc1,,"inconclusive [inhibitor, single point]"
CC(C)(C)c1ccc(C(=O)Nc2ccc3nc(SCC(=O)N4CCCC4)sc3c2)cc1,,"inconclusive [inhibitor, full curve]"
COc1cccc(N2CCN(C(=O)CCn3nc(C)c(S(=O)(=O)N4CCCC4)c3C)CC2)c1,,"inconclusive [activator, full curve, poor fit]"
CC(C)(C)NCc1cc(Nc2ccnc3cc(Cl)ccc23)c2c(c1O)CCCC2,inactive: -0.0812% [at 0.673 µM],
OCCN1CCN(CCCN2c3ccccc3Sc3ccc(Cl)cc32)CC1,,"inconclusive [inhibitor, single point]"
CC(C)C(C)(C)C(C)(C)C(C)(C)S,inactive: 0.825%,
Cc1ccc(Cn2cc(S(=O)(=O)c3ccccc3)c(=O)c3cc(F)c(N4CCOCC4)cc32)cc1,inactive: -15%,
CCCCN(CCCNC(=O)c1cc(Nc2ccc(OC)cc2OC)nc2ccccc12)Cc1ccccc1,,"inconclusive [inhibitor, partial curve, poor fit]"
O=C(CSc1nc2c(c(=O)[nH]1)CN(Cc1ccc3c(c1)OCO3)CC2)Nc1cc(F)ccc1F,,"inconclusive [inhibitor, partial curve, poor fit]"
CCc1ccccc1NC(=O)Cn1nc(-c2cc(C)ccc2C)c2c(c1=O)CCCC2,,"inconclusive [inhibitor, partial curve, poor fit]"
Cc1ccc2c(CC(=O)Nc3ccc(S(=O)(=O)N4CCC(C)CC4)cc3)coc2c1,,"inconclusive [inhibitor, partial curve, poor fit]"
CC1CCc2nc3ccc(S(=O)(=O)N4CCC(C(=O)NCc5ccccc5Cl)CC4)cc3c(C(=O)O)c2C1 (stereo not drawn),,"inconclusive [inhibitor, single point]"
CCCCSCCCNC(=O)c1cn(CC)c2ccc(S(=O)(=O)N3CCOCC3)cc2c1=O,,"inconclusive [inhibitor, partial curve, poor fit]"
COc1cccc(OCc2nc3ccccc3n2Cc2ccccc2)c1,,"inconclusive [inhibitor, partial curve, poor fit]"
COc1ccc(Nc2cc(C(=O)NCCCN(C)Cc3ccccc3)c3ccccc3n2)cc1OC,,"inconclusive [inhibitor, partial curve, poor fit]"
Cc1ccc(CNS(=O)(=O)c2ccc(F)c(C(=O)Nc3ccc(C)c(F)c3)c2)cc1,inactive: -7.31%,
COc1ccc(NCc2nc3ccccc3n2CCOc2ccccc2C)cc1,,"inconclusive [inhibitor, partial curve, poor fit]"
CCCN1CCN(CCCNC(=O)c2cc3c(=O)[nH]c4ccccc4c3s2)CC1,,"inconclusive [inhibitor, single point]"

Compound,"activity change, negative = inhibition",Potency
CCc1ccc(C2=CC(c3cccc(OC)c3OC)n3c(nc4ccccc43)N2)cc1 (stereo not drawn),inactive: -4.27%,
CCC(CC)C(=O)Nc1cccc(-c2cn3cccnc3n2)c1,inactive: 1.02%,
O=C(COCc1cc(-c2ccc(F)cc2)on1)Nc1cc(Cl)cc(Cl)c1,inconclusive: -32.2% [inhibitor],
Cc1nnc(C(C)C)n1C1CC2CCC(C1)N2CCC(NC(=O)C1CCC(F)(F)CC1)c1ccccc1 (stereo not drawn),inactive: 8.3%,
CC(C)C(NC(=O)c1ccc2ccccc2n1)C(=O)NC(CC(=O)O)C(=O)COc1c(F)cccc1F (stereo not drawn),inactive: -0.0495%,
CCc1ccc(-c2nc(CN3CCCC(C(=O)NCc4ccccc4Cl)C3)c(C)o2)cc1 (stereo not drawn),,"inconclusive [inhibitor, partial curve]"
COC(=O)C1=CO[C@@H](O[C@@H]2O[C@H](CO)[C@@H](O)[C@H](O)[C@H]2O)[C@@H]2[C@@H](C)[C@@H](O)C[C@H]12,inactive: 18.1% [at 53.3 µM],
CCOC(=O)c1cnc2c(OC)cccc2c1N1CCN(c2ccccc2F)CC1,,"inconclusive [inhibitor, single point]"
O=c1oc(Cl)c(Cl)c2ccccc12,,"inconclusive [inhibitor, single point]"
CCc1ccc(NC(=O)c2ccc(CNS(=O)(=O)c3ccc4c(c3)C(C)(C)C(=O)N4C)cc2)cc1,inactive: 3.97%,
CC(=O)N1c2ccc(S(=O)(=O)NCC3CCC(C(=O)Nc4cccc(F)c4)CC3)cc2CC1C (stereo not drawn),inactive: -23%,
CCOC(=O)c1ccc(OCCC2CCN(c3ccc(C)nn3)CC2)cc1,inactive: 12.9%,
CCN1CCN(C(c2cccc(OC)c2)c2c(O)cc(C)n(Cc3ccco3)c2=O)CC1 (stereo not drawn),inconclusive: -36.1% [inhibitor],
CCOc1ccc(NC(=O)CSc2oc(-c3ccco3)nc2S(=O)(=O)c2ccc(Cl)cc2)cc1,inactive: -16%,
Cc1[nH]c2ccccc2c1C1(O)C(=O)N(Cc2ccccc2)c2ccc(Br)cc21 (stereo not drawn),,"inconclusive [inhibitor, single point]"
O=C1c2ccc(Nc3ccc(F)cc3F)cc2CCc2ccc(OCC(O)CO)cc21 (stereo not drawn),,"inconclusive [inhibitor, single point]"
CCC1(O)CC2CN(CCc3c([nH]c4ccccc34)[C@@](C(=O)OC)(c3cc4c(cc3OC)N(C)C3[C@]45CCN4CC=C[C@@](CC)([C@@H](OC(C)=O)[C@]3(O)C(=O)OC)[C@H]45)C2)C1 (stereo partly drawn),,"inconclusive [inhibitor, single point]"
Cc1ccc2nc(-c3ccc(N4CCOCC4)cc3)c(Nc3ccccc3C)n2c1,,"inconclusive [inhibitor, partial curve]"
O=C(CN1C(=O)COc2ccc(S(=O)(=O)NC3CCCC3)cc21)Nc1ccc(F)c(Cl)c1,,"inconclusive [inhibitor, partial curve, poor fit]"
O=C(COCc1cc(-c2ccc3c(c2)OCO3)on1)Nc1cccc(O)c1,inconclusive: -38.1% [inhibitor],

Compound,"activity change, negative = inhibition",Potency
CCC(=O)N1c2ccccc2CC1C(=O)NCCCN1CCN(c2ccc(F)cc2)CC1 (stereo not drawn),inactive: -25.1%,
CCn1cc2nc(SCc3c(F)cccc3Cl)n(CCc3ccccc3)c(=O)c2n1,,"inconclusive [inhibitor, partial curve]"
COc1ccccc1NC(=O)CSc1ncc(CO)n1Cc1ccc(F)cc1,inactive: 2.51%,
COc1ccc2ncc3c(-c4ccccc4)nn(-c4ccc(C)c(C)c4)c3c2c1,,"inconclusive [inhibitor, partial curve, poor fit]"
CC(C)(C#N)c1ccc(N2C(=O)OCc3cnc4ccc(-c5cnc6ccccc6c5)cc4c32)cc1,inactive: 0.357%,
CCCN1Cc2cccc(C(=O)Nc3ccccc3F)c2C1=O,,"inconclusive [inhibitor, partial curve, poor fit]"
COCCNC(=O)c1c(NC(=O)Cc2coc3cc(C)ccc23)sc2c1CCCC2,,"inconclusive [inhibitor, partial curve, poor fit]"
CC(Sc1oc(-c2ccco2)nc1S(=O)(=O)c1ccc(Br)cc1)c1ccccc1 (stereo not drawn),,"inconclusive [inhibitor, single point]"
CCc1ccccc1N(CC)C(=O)c1cc2c(s1)-c1ccccc1OC2,inactive: -12.5%,
CCN(CC)CCOc1ccc(/C(=C(\Cl)c2ccccc2)c2ccccc2)cc1,,inactive
C[C@@H]1O[C@@H](O[C@@H]2[C@@H](O[C@@H]3O[C@@H](C)[C@H](O[C@@H]4OC[C@H](O)[C@H](O[C@@H]5OC[C@@H](O)[C@H](O)[C@H]5O)[C@H]4O)[C@@H](O[C@@H]4OC[C@](O)(CO)[C@H]4O)[C@H]3O)[C@H](OC(=O)[C@]34CCC(C)(C)C[C@H]3C3=CCC5[C@@]6(C)C[C@H](O)[C@H](O[C@@H]7O[C@H](CO[C@@H]8OC[C@H](O)[C@H](O)[C@H]8O)[C@@H](O)[C@H](O)[C@H]7O)C(C)(C)C6CC[C@@]5(C)[C@]3(C)C[C@H]4O)OC[C@H]2O)[C@H](O)[C@H](O)[C@H]1O (stereo partly drawn),inactive: -1.07% [at 13.5 µM],
CCOc1cc(C(C)(C)C)ccc1C1=NC(C)(c2ccc(Cl)cc2)C(C)(c2ccc(Cl)cc2)N1C(=O)N1CCN(CCCS(C)(=O)=O)CC1 (stereo not drawn),,"inconclusive [inhibitor, single point]"
CCN(CCCNC(=O)c1cc2cc3cc(C)ccc3nc2s1)c1cccc(C)c1,,"inconclusive [inhibitor, partial curve, poor fit]"
Cc1ccc(S(=O)(=O)c2cn(Cc3ccccc3)c3cc(N4CCCC4)c(F)cc3c2=O)cc1C,,"inconclusive [inhibitor, partial curve, poor fit]"
CCN(C(=O)Cn1ncc2c1-c1cc(C)ccc1OC2)c1cc(Cl)ccc1OC,,"inconclusive [inhibitor, partial curve, poor fit]"
NC(=O)N1CCC(CC(=O)N2CCC(C3c4ncc(Br)cc4CCc4cc(Cl)cc(Br)c43)CC2)CC1 (stereo not drawn),inactive: -21.6%,
CN(Cc1ccccc1)C(=O)c1cc2c(=O)n(C)c3ccccc3c2s1,,"inconclusive [inhibitor, partial curve, poor fit]"
Cc1ccc(C)c(OCCSc2nc3ccccc3n2CC(=O)N2CCOCC2)c1,,"inconclusive [inhibitor, single point]"
